# Test results from PubChem BioAssay AID1460 (National Center for Advancing Translational Sciences (NCATS), 2008).
# Hit rate of the full screen: of about 270,000 compounds, about 5,800 (2.1%) were called active. Inconclusive results, whose numbers are uncertain, are shown with a selection of clear calls. Calls come from the whole dose curve; as a rule, active = well fitted inhibition curve with a large enough effect; inconclusive = small, poorly fitted or top-dose-only effect; inactive = flat fitted curve, though single readings scatter. Potencies beside an inconclusive call are fits to weak or partial responses and may not hold up.
# Target: Microtubule-associated protein tau (Homo sapiens) (UniProt P10636)
# Assay: qHTS for Inhibitors of Tau Fibril Formation, Thioflavin T Binding; note: nearly all actives have a fitted effect of over 55% in size
# Conditions: recombinant tau K18 P301L (four-repeat tau fragment), heparin-induced fibrillization, ThT fluorescence; series mostly up to 57.4 µM
# Outline: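 Tau K18 P301L fragment (15 uM unlabeled plus 0.24 uM Alexa 594-labeled) in 100 mM sodium acetate pH 7 with compound, fibrillization induced by 20 uM heparin for 6 hr at 37 C. Thioflavin T (30 uM) added, fluorescence read after 1 hr (ex 450, em 510 nm).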
# % is set by controls: 0 for no effect and ±100 for the full control effect; potency is the fitted concentration of half-maximal effect; tags give direction and shape of the fitted curve.
# UniProt P10636, sequence (P10636 whole entry, looked up): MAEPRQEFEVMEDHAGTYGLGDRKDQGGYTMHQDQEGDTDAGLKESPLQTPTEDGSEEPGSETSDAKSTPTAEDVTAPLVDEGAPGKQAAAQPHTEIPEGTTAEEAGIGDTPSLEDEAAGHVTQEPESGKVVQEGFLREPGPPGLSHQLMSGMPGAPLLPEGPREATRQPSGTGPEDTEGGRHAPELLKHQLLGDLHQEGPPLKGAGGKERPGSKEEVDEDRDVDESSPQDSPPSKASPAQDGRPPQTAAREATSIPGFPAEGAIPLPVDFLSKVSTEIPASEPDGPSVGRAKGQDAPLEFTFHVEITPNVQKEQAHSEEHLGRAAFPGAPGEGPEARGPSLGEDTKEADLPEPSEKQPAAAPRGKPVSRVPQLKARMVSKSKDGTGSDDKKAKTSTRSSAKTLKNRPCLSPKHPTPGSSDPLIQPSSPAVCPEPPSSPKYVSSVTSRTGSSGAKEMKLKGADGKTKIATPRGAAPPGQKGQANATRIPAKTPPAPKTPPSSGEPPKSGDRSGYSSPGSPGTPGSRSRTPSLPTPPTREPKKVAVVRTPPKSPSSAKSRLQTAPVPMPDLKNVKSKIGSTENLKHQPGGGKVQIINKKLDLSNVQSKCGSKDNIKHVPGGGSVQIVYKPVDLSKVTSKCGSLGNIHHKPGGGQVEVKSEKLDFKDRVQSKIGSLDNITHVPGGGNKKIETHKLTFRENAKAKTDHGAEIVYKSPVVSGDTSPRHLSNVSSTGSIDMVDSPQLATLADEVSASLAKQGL
SMILES,Potency,"activity, negative = inhibition"
Cc1ccc(-n2ncc3c(NC4CCCCCC4)ncnc32)cc1,inactive,
COc1ccc(C(=O)NCCn2cc(SCc3c(F)cccc3Cl)c3ccccc32)cc1,"inconclusive: 15.8 µM [inhibitor, partial curve]",
CC(C(=O)NC1C(=O)N2C(C(=O)O)=C(CSc3nnnn3C)CSC12)n1cc(Cl)cn1 (stereo not drawn),"inconclusive: 15.8 µM [inhibitor, partial curve]",
CCc1ccc(OCC(=O)O/N=C(\N)Cc2ccc([N+](=O)[O-])cc2)cc1,"inconclusive: 39.8 µM [inhibitor, partial curve]",
N#CC1=C(N2CCCCC2)c2cc3c(n2C1=O)CCCC3,"inconclusive: 20 µM [inhibitor, partial curve]",
OC(CN1CCN(c2ccccn2)CC1)Cn1c2ccccc2c2ccccc21 (stereo not drawn),"inconclusive: 28.2 µM [inhibitor, partial curve]",
Cc1ccc(NC(=O)c2sc3nc(-c4cccs4)ccc3c2N)cc1F,"inconclusive: 1 µM [inhibitor, full curve]",
CCCC(C(=O)NC1CCCCC1)N(Cc1ccco1)C(=O)CNS(=O)(=O)c1ccccc1 (stereo not drawn),inactive,
COc1ccc(CN(C)CC(=O)Nc2ccccc2C(F)(F)F)cc1,inactive,
CCOC(=O)Cc1nn(Cc2nc(-c3ccc(C#N)cc3)cs2)c(=O)c2ccccc12,inactive,
Cc1c(Cl)cccc1NC(=O)COC(=O)CCc1nc2ccccc2n1-c1ccccc1,"inconclusive: 14.1 µM [inhibitor, single point]",
CCN(CC)C(=O)c1c(NC(=O)c2cccc(C)c2)sc2c1CCC(C)C2 (stereo not drawn),"inconclusive: 25.1 µM [inhibitor, partial curve]",
Fc1ccc(/C=C2\CCCC3=C2NC(=S)NC3c2ccc(F)cc2)cc1 (stereo not drawn),"inconclusive: 15.8 µM [inhibitor, partial curve]",
COc1ccc(-c2cc(C(F)(F)F)nc(SCCC(=O)Nc3ccc(OC)c(OC)c3)n2)cc1,"inconclusive: 22.4 µM [inhibitor, partial curve]",
CC1CC(=O)NN=C1c1ccc(NCCO)c([N+](=O)[O-])c1 (stereo not drawn),"inconclusive: 14.1 µM [inhibitor, partial curve]",
O=C(O)c1ccc(/C=N\Nc2ccc(S(=O)(=O)N3CCOCC3)cc2[N+](=O)[O-])cc1,"inconclusive: 28.2 µM [inhibitor, single point]",
C=CCN1C(=O)/C(=C/c2ccc(O)cc2)S/C1=N/c1nccs1,"inconclusive: 10 µM [inhibitor, partial curve]",
c1n[nH]c(NC2=NCCC2)n1,inactive,
CCN(CC)c1ccc(C(=O)N/N=C(\C)c2cccnc2)cc1,"inconclusive: 11.2 µM [inhibitor, partial curve]",
CCCn1c2ccccc2c2nc3ccccc3nc21,"inconclusive: 14.1 µM [inhibitor, partial curve]",
CCN(CC)CCSc1c(C(C)C)cnc2c1c(=O)n(C)c(=O)n2C,inactive,
O=C(NCc1ccccc1)N[C@@H](Cc1c[nH]c2ccccc12)C(=O)O,inactive,
CCOc1ccc(CNC(=O)CSc2nnc(C)c3c(C)n(-c4ccc(Cl)cc4)nc23)cc1,inactive,

SMILES,Potency,"activity, negative = inhibition"
Cc1ccc(C(=O)Oc2csc(=S)n2C(=O)c2ccc(C)cc2)cc1,active: 10 µM,
CCc1cc(C(=O)N=Nc2c(O)[nH]c3ccc([N+](=O)[O-])cc23)c2ccccc2n1,active: 15.8 µM,
COc1ccc2c(c1)C(c1ccc([N+](=O)[O-])cc1)=NNC(c1ccco1)=N2,"inconclusive: 25.1 µM [inhibitor, partial curve]",
CCNC(=O)c1sc2cc(C)ccc2c1Cl,"inconclusive: 5.01 µM [inhibitor, full curve, poor fit]",
COC(=O)c1ccc(C(=O)OC)c(NC(=O)CN(c2ccccc2)S(=O)(=O)N(C)C)c1,inactive,
CCn1nc(NS(=O)(=O)c2ccccc2)c2cc3cccc(C)c3nc21,"inconclusive: 15.8 µM [inhibitor, partial curve]",
CCN(c1ccc(NC(=O)COC(=O)/C=C/c2cccs2)cc1)C(C)C,"inconclusive: 0.199 µM [inhibitor, full curve, poor fit]",
Cc1ccc(NC(=O)Nc2nnc(N3CCCC3)s2)cc1C,"inconclusive: 7.08 µM [inhibitor, full curve, poor fit]",
Cc1ccc(N2C(=O)CCSC23C(=O)N(Cc2ccccc2)c2ccccc23)cc1 (stereo not drawn),"inconclusive: 15.8 µM [inhibitor, single point]",
Cc1nn2c(=O)cc(COC(=O)c3cccc(NC(=O)COc4ccccc4C)c3)nc2s1,"inconclusive: 1.26 µM [inhibitor, partial curve]",
Cc1ccc(C(=O)Nc2ccc3c(c2)nc2n3CCSC2)cc1,"inconclusive: 0.631 µM [inhibitor, full curve]",
CO/N=C/c1ccc(N2CCN(C(=O)c3ccc(C)cc3)CC2)c([N+](=O)[O-])c1,"inconclusive: 14.1 µM [inhibitor, partial curve]",
CCOc1ccc(OCC)c(-c2c(=O)n(OCc3ccccc3Br)c3ccccc3[n+]2[O-])c1,"inconclusive: 12.6 µM [inhibitor, partial curve]",
CN(C)NC1CCS(=O)(=O)C1 (stereo not drawn),"inconclusive: 15.8 µM [inhibitor, partial curve]",
Cc1ccc(C=C2C(=O)c3ccccc3C2=O)o1,active: 8.91 µM,
Cc1ccc(-n2c(=O)c3c(n4cnnc24)-c2ccccc2CC32CCCCC2)cc1,inactive,
O=c1[nH]c(-c2cccnc2)nc2ccccc12,inactive,
[O-]C1=N/[N+](=C/c2ccccc2Cl)CC1,"inconclusive: 20 µM [inhibitor, partial curve]",
COc1ccc(N2CCN(C(=O)c3cccn3-c3nnc(N4CCCC4)s3)CC2)cc1,"inconclusive: 17.8 µM [inhibitor, single point]",
O=C(/C=C\NCC(=O)c1ccccc1)c1ccc2ccccc2c1,"inconclusive: 5.01 µM [inhibitor, partial curve]",
Cc1cc(C(c2ccc(C)o2)c2ccc(C)o2)c(O)c([N+](=O)[O-])c1,"inconclusive: 28.2 µM [inhibitor, partial curve]",
Cc1c(CNC2CCCCC2)c(C(=O)O)c(C)n1Cc1ccc(Cl)cc1,inactive,
C/C=C/c1ccc(OCCCCOc2ccccc2F)c(OC)c1,"inconclusive: 20 µM [inhibitor, partial curve, poor fit]",

SMILES,Potency,"activity, negative = inhibition"
CCN(CC)S(=O)(=O)c1ccc2c(c1)N(CC(=O)N1CCN(c3cccc(C)c3C)CC1)C(=O)CO2,inactive,
O=Cc1cn(-c2ccccc2)nc1-c1ccc2c(c1)OCCO2,inactive,
Cc1csc(NC(=O)c2cccn2C)n1,inactive,
CC(C)(C)c1ccc(C2CC2C(=O)N/N=C\c2ccc[nH]2)cc1 (stereo not drawn),"inconclusive: 22.4 µM [inhibitor, partial curve, poor fit]",
S=C(NCCc1ccccc1)Nc1ccccn1,inactive,
COc1ccc(Nc2ncnc3sc4c(c23)CCCC4)cc1,"inconclusive: 17.8 µM [inhibitor, partial curve]",
COC(=O)CSc1nnc(CNC(=O)c2cc(OC)c(OC)c(OC)c2)n1C,"inconclusive: 25.1 µM [inhibitor, partial curve]",
COc1ccc(NC(=O)c2c(NC(=O)C(F)(F)F)sc3c2CCCCC3)cc1,active: 15.8 µM,
COc1ccc(Cn2ccc3nc(C)c(C(=O)N4CCN(c5cccc(OC)c5)CC4)cc3c2=O)cc1,"inconclusive: 39.8 µM [inhibitor, single point]",
CCCCC1CCC(C(=O)N2CC(=O)Nc3ccc(C)cc3C2c2ccc(F)cc2)CC1 (stereo not drawn),inactive,
O=C(Nc1nc2n(n1)C(c1ccccc1)C=C(c1ccccc1)N2)c1ccco1 (stereo not drawn),"inconclusive: 14.1 µM [inhibitor, single point]",
CSc1nsc(N/N=C/c2ccc3c(c2)OCO3)c1C#N,"inconclusive: 5.62 µM [inhibitor, partial curve]",
CS(=O)(=O)N(Cc1ccccc1)c1ccc(C(=O)Nc2cccc(Cl)c2)cc1,inactive,
N#Cc1c(NC(=O)c2cc(-n3cnnc3)ccc2Cl)sc2c1CCCC2,"inconclusive: 39.8 µM [inhibitor, single point]",
COC(=O)c1ccc2c(=O)n3nc(Nc4ccc(F)cc4F)sc3nc2c1,"inconclusive: 0.631 µM [inhibitor, partial curve]",
CCN1C(=O)[C@H]2[C@H]3[C@H](O)[C@H](O)C/C(=N/OCc4ccccc4)[C@H]3CC[C@@H]2C1=O,,inactive: 1.93% [at 11.5 µM]
O=C(Cc1csc(Nc2nc(=S)[nH]c3ccccc23)n1)NCCCN1CCN(c2cccc(Cl)c2)CC1,"inconclusive: 10 µM [inhibitor, partial curve, poor fit]",
COc1ccc(OC)c(S(=O)(=O)N2CCCCC2C(=O)N2CCN(c3ccccn3)CC2)c1 (stereo not drawn),"inconclusive: 39.8 µM [inhibitor, single point]",
COc1cc(CNc2ccc3[nH]c(=O)[nH]c3c2)ccc1OCc1ccc(F)cc1Cl,"inconclusive: 0.794 µM [inhibitor, full curve, poor fit]",
COc1ccc2c(c1)Cc1sc(NC(=O)c3cccnc3)nc1-2,active: 7.94 µM,
CCOC(=O)/C=C/C(=O)OCC(=O)Nc1cccc(Br)c1,"inconclusive: 12.6 µM [inhibitor, partial curve]",
CCc1ccc(NC(=O)CSc2nnc3[nH]c(=O)cc(-c4ccccc4)n23)cc1,"inconclusive: 3.16 µM [inhibitor, full curve]",
